One experiment deals with HSkMC. Kind of experiment: cytotoxicity call (relative viability < 0.9). Conditions: 10 µM.
A further experiment deals with HepG2. The experiment can be described thus: cytotoxicity call (relative viability < 0.9). Conditions: 10 µM.
The test system of another experiment is S. aureus RN4220. Kind of experiment: growth inhibition call (relative growth <= 0.2). Conditions: 50 µM.

Here are results for 28 compounds from the antibiotic and cytotoxicity screens of Wong et al. (2023).

The structures appear in SMILES notation. This is one part of the list.

As to `C[C@@H]1CN([C@@H](C)CO)C(=O)c2cc(NS(=O)(=O)c3ccc(Cl)cc3)ccc2O[C@H]1CN(C)C(=O)Nc1ccc(C(F)(F)F)cc1`, the cytotoxicity call in the experiment with HSkMC and in the experiment on HepG2 was “inactive” in each case. Moreover, the growth inhibition call with S. aureus RN4220 is “inactive”.

For `C[C@@H]1CN([C@@H](C)CO)C(=O)c2cc(NC(=O)Cc3ccccc3)ccc2O[C@@H]1CN(C)S(=O)(=O)c1ccccc1`, the cytotoxicity call in the experiment with HSkMC and in the experiment on HepG2 was “inactive” in each case. Also, the growth inhibition call with S. aureus RN4220 was “inactive”.

Consider `CC(C)NC(=O)N[C@H]1CC[C@H](CCN)O[C@@H]1CO`, for which the cytotoxicity call with HSkMC and in the experiment on HepG2 was “inactive” throughout. Also, the growth inhibition call in the experiment on S. aureus RN4220 was “inactive”.

Take `CC[C@@H](N)Cn1c(=O)oc2ccccc21`: the cytotoxicity call in the experiment with HSkMC and in the experiment with HepG2 was “inactive” in each case. Further, in the experiment with S. aureus RN4220, the growth inhibition call is “inactive”.

Consider `CC(C)NC(=O)N(C)C[C@H]1Oc2ccc(NC(=O)CCC(F)(F)F)cc2CC(=O)N([C@@H](C)CO)C[C@@H]1C`, for which, in the experiment on HSkMC, the cytotoxicity call was “inactive”. The cytotoxicity call in the experiment with HepG2 was “active”. In the experiment with S. aureus RN4220, the growth inhibition call is “inactive”.

For the compound `C[C@H]1CCCCO[C@H](CN(C)C(=O)Nc2ccc3c(c2)OCO3)[C@@H](C)CN([C@@H](C)CO)C(=O)c2cc(NC(=O)Nc3ccccc3)ccc2O1`, the cytotoxicity call in the experiment with HSkMC and with HepG2 was “inactive” each time. In addition, the growth inhibition call with S. aureus RN4220 is “inactive”.

Turning to `C[C@H](CO)N1C[C@H](C)[C@@H](CN(C)Cc2ccc(C(=O)Nc3ccccc3N)cc2)Oc2c(NC(=O)C3CCCCC3)cccc2C1=O`, the cytotoxicity call in the experiment with HSkMC and in the experiment on HepG2 was “inactive” each time. Moreover, in the experiment on S. aureus RN4220, the growth inhibition call is “inactive”.

`C[C@@H]1CN([C@@H](C)CO)C(=O)Cc2cc(NS(C)(=O)=O)ccc2O[C@@H]1CN(C)S(=O)(=O)c1ccc(Cl)cc1`: the cytotoxicity call in the experiment on HSkMC and with HepG2 was “inactive” each time. Further, in the experiment on S. aureus RN4220, the growth inhibition call is “inactive”.

With `CC(C)(O)c1coc(S(=O)(=O)NC(=O)Nc2c3c(cc4c2CCC4)CCC3)c1`, the cytotoxicity call with HSkMC and in the experiment on HepG2 was “inactive” each time. For the same compound, in the experiment with S. aureus RN4220, the growth inhibition call was “inactive”.

Regarding `COc1cccc(S(=O)(=O)Nc2ccc3c(c2)[C@H]2C[C@@H](CC(=O)NC4CCCCC4)O[C@H](CO)[C@H]2O3)c1`, the cytotoxicity call in the experiment on HSkMC and in the experiment with HepG2 was “inactive” in each case. In addition, the growth inhibition call in the experiment with S. aureus RN4220 was “inactive”.

For `C[C@@H]1CCCCO[C@H](CN(C)S(C)(=O)=O)[C@H](C)CN([C@@H](C)CO)C(=O)c2cc(NS(=O)(=O)c3cn(C)cn3)ccc2O1`, the cytotoxicity call in the experiment with HSkMC and in the experiment with HepG2 was “inactive” in each case. Moreover, the growth inhibition call with S. aureus RN4220 is “inactive”.

In the case of `C[C@H](CO)N1C[C@H](C)[C@H](CN(C)C(=O)NC2CCCCC2)OCCCC[C@H](C)Oc2ccc(NS(=O)(=O)c3cccs3)cc2C1=O`, the cytotoxicity call in the experiment on HSkMC and in the experiment with HepG2 was “inactive” each time. Moreover, the growth inhibition call in the experiment on S. aureus RN4220 is “inactive”.

Regarding `Cc1noc(C)c1NC(=O)N(C)C[C@H]1OCCCC[C@H](C)Oc2ccc(NC(=O)Nc3ccc(C(F)(F)F)cc3)cc2C(=O)N([C@H](C)CO)C[C@@H]1C`, the cytotoxicity call in the experiment with HSkMC and in the experiment with HepG2 was “inactive” in each case. For the same compound, the growth inhibition call in the experiment on S. aureus RN4220 is “inactive”.

With `C[C@H](CO)N1C[C@H](C)[C@H](CN(C)Cc2ccncc2)Oc2ccc(NC(=O)Cn3cnnn3)cc2C1=O`, the cytotoxicity call in the experiment with HSkMC and with HepG2 was “inactive” in each case. Further, the growth inhibition call in the experiment with S. aureus RN4220 was “inactive”.

With `COc1ccc(S(=O)(=O)Nc2cccc3c2O[C@H](CN(C)Cc2ccncc2)[C@@H](C)CN([C@H](C)CO)C3=O)cc1`, the cytotoxicity call in the experiment with HSkMC and in the experiment on HepG2 was “inactive” in each case. In the experiment with S. aureus RN4220, the growth inhibition call is “inactive”.

Regarding `O=C(O)c1cc2sccc2s1`, the cytotoxicity call with HSkMC and in the experiment with HepG2 was “inactive” each time. Also, the growth inhibition call in the experiment with S. aureus RN4220 was “inactive”.

For the compound `CCCNC(=O)[C@@]1(c2ccc([N+](=O)[O-])cc2)CC(=O)N(CC23CC4CC(CC(C4)C2)C3)[C@@H]1c1ccc(CO)cc1I`, the cytotoxicity call with HSkMC and in the experiment with HepG2 was “inactive” each time. In the experiment with S. aureus RN4220, the growth inhibition call was “inactive”.

Take `Cc1noc(C)c1S(=O)(=O)N(C)C[C@H]1Oc2ccc(NS(C)(=O)=O)cc2C(=O)N([C@H](C)CO)C[C@H]1C`: the cytotoxicity call in the experiment with HSkMC and in the experiment with HepG2 was “inactive” throughout. In the experiment with S. aureus RN4220, the growth inhibition call was “inactive”.

Regarding `C[C@@H]1CN([C@H](C)CO)C(=O)c2cc(NS(=O)(=O)c3cccs3)ccc2O[C@@H]1CN(C)Cc1ccc(Oc2ccccc2)cc1`, the cytotoxicity call in the experiment with HSkMC was “inactive”. Besides, the cytotoxicity call in the experiment on HepG2 is “active”. Besides, the growth inhibition call with S. aureus RN4220 was “inactive”.

As to `COc1ccc(S(=O)(=O)N2C[C@H](O)COC[C@@H]3O[C@@H](CC(=O)NCc4ccc(Cl)c(Cl)c4)CC[C@H]32)cc1`, the cytotoxicity call in the experiment with HSkMC and with HepG2 was “inactive” throughout. Moreover, in the experiment with S. aureus RN4220, the growth inhibition call is “inactive”.

Take `C[C@@H]1CN([C@@H](C)CO)C(=O)c2cc(NC(=O)Nc3ccccc3)ccc2O[C@@H](C)CCCCO[C@@H]1CN(C)C(=O)Nc1ccccc1`: the cytotoxicity call with HSkMC and in the experiment on HepG2 was “inactive” throughout. Besides, the growth inhibition call in the experiment on S. aureus RN4220 was “inactive”.

As for `COc1ccc(CN(C)C[C@@H]2OCCCC[C@H](C)Oc3ccc(NC(=O)Nc4c(C)noc4C)cc3C(=O)N([C@H](C)CO)C[C@@H]2C)cc1`, the cytotoxicity call in the experiment with HSkMC and with HepG2 was “inactive” each time. In the experiment on S. aureus RN4220, the growth inhibition call was “inactive”.

As to `COc1ccc(CN(C)C[C@H]2OCCCC[C@H](C)Oc3ccc(NC(=O)Nc4ccc5c(c4)OCO5)cc3C(=O)N([C@@H](C)CO)C[C@@H]2C)cc1`, the cytotoxicity call in the experiment with HSkMC was “inactive”. Besides, the cytotoxicity call with HepG2 was “active”. In addition, the growth inhibition call with S. aureus RN4220 is “inactive”.

`COc1ccc(NC(=O)Nc2cccc3c2O[C@H](CN(C)S(C)(=O)=O)[C@@H](C)CN([C@@H](C)CO)C3=O)cc1`: the cytotoxicity call in the experiment on HSkMC and in the experiment on HepG2 was “inactive” in each case. The growth inhibition call in the experiment on S. aureus RN4220 is “inactive”.

Regarding `COc1ccc(NC(=O)Nc2ccc3c(c2)C(=O)N([C@@H](C)CO)C[C@@H](C)[C@H](CN(C)S(=O)(=O)c2ccc(Cl)cc2)OCCCC[C@@H](C)O3)cc1`, the cytotoxicity call in the experiment on HSkMC and in the experiment with HepG2 was “inactive” each time. Besides, the growth inhibition call in the experiment with S. aureus RN4220 was “inactive”.

Turning to `Cl.c1ccc2c(CC3=NCCN3)cccc2c1`, the cytotoxicity call in the experiment on HSkMC and with HepG2 was “inactive” throughout. Also, in the experiment with S. aureus RN4220, the growth inhibition call is “inactive”.

On to `CCCNC(=O)N1C[C@@H](C)[C@H](OC)CN(C)C(=O)c2cc(NS(=O)(=O)CC(F)(F)F)ccc2OC[C@@H]1C`, for which the cytotoxicity call with HSkMC and in the experiment with HepG2 was “inactive” each time. Also, in the experiment on S. aureus RN4220, the growth inhibition call was “inactive”.

For the compound `CCCNC(=O)N1C[C@@H]2[C@H](c3ccccc31)[C@@H](CO)N2C(=O)CN1CCOCC1`, the cytotoxicity call in the experiment on HSkMC (human skeletal muscle cells) and with HepG2 was “inactive” each time. Also, the growth inhibition call with S. aureus RN4220 was “inactive”.
